To fix the notation:
B1: Caulobacter ParB omega fusion; a variant is named by its letters at X, in order, B8GW30 (parent)
chain: MESVVVGEPGMSEGRRGLGRGLSALLGEVDAAPAQAPGEQLGGSREAPIEILQRNPDQPRRTFREEDLEDLSNSIREKGVLQPILVRPSPDTAGEYQIVAGERAWRAAQRAGLKTVPIMVRELDDLAVLEIGIIENVQRADLNVLEEALSYKVLMEKFERTQENIAQTIGKSXSHVANXMRLLXLPDEVQSYLVSGELTAXHARAIAAAADPVALAKQIIEGGLSVRETEALARKAPNLSAGKSKGGRPPRVKDTDTQALESDLSSVLGLDVSIDHRGSTGTLTITYATLEQLDDLCNRLTRGI

In all, about 81,000 sequences were measured (“one-hybrid fitness for binding NBS DNA”: median about -0.1, highest 2% from about 0.36 on). This is one part of the list. Some results are limits rather than exact numbers.

This test covers variants of B1. In words: one-hybrid fitness for binding NBS DNA (the Noc-binding site; scaled: cognate 1, non-cognate 0); higher = stronger binding. The conditions noted are these: with NBS DNA site. The method in brief: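 Pre- and post-selection plasmids were Illumina-sequenced, three replicate libraries were pooled, and any variant with under 10 reads was removed. The libraries were Caulobacter ParB with four specificity codons randomised, selected in E. coli USO through a HIS3 reporter whose site is 19 bp from the promoter. Cells grew 48 hours at 37°C on M9 without histidine, with 0.1 mM IPTG and 5 mM 3-AT. Fitness is the log change in variant-to-wild-type read ratio, rescaled against cognate and non-cognate.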
As for RWFV, the “one-hybrid fitness for binding NBS DNA” value is at most 0.2.

As to QWGC, the “one-hybrid fitness for binding NBS DNA” value was at most 0.2.

With MNHC, the “one-hybrid fitness for binding NBS DNA” value is at most 0.2.

In the case of ICDG, the “one-hybrid fitness for binding NBS DNA” value was at most 0.2.

As for LQAE, the “one-hybrid fitness for binding NBS DNA” value was at most 0.2.

On to LSRN, for which the “one-hybrid fitness for binding NBS DNA” value is at most 0.2.

Take WVPS: the “one-hybrid fitness for binding NBS DNA” value was at most 0.2.

Take RISK: the “one-hybrid fitness for binding NBS DNA” value is at most 0.2.

For the variant QMLL, the “one-hybrid fitness for binding NBS DNA” value is at most 0.2.

On to DRKH, for which the “one-hybrid fitness for binding NBS DNA” value was at most 0.2.

HDAW: the “one-hybrid fitness for binding NBS DNA” value is at most 0.2.

For the variant DQTC, the “one-hybrid fitness for binding NBS DNA” value is at most 0.2.

KTDS: the “one-hybrid fitness for binding NBS DNA” value was at most 0.2.

For SLRG, the “one-hybrid fitness for binding NBS DNA” value was at most 0.2.

For the variant NRHL, the “one-hybrid fitness for binding NBS DNA” value was at most 0.2.

On to KWAC, for which the “one-hybrid fitness for binding NBS DNA” value was at most 0.2.

As to PTLW, the “one-hybrid fitness for binding NBS DNA” value is at most 0.2.

For the variant TMSK, the “one-hybrid fitness for binding NBS DNA” value was at most 0.2.

With QQAQ, the “one-hybrid fitness for binding NBS DNA” value is at most 0.2.

Regarding PSGR, the “one-hybrid fitness for binding NBS DNA” value was at most 0.2.

Regarding RGYS, the “one-hybrid fitness for binding NBS DNA” value was at most 0.2.

WGCV: the “one-hybrid fitness for binding NBS DNA” value was at most 0.2.

On to RNYR, for which the “one-hybrid fitness for binding NBS DNA” value was at most 0.2.

With RMAD, the “one-hybrid fitness for binding NBS DNA” value was at most 0.2.

TVME: the “one-hybrid fitness for binding NBS DNA” value was at most 0.2.

Turning to RNCL, the “one-hybrid fitness for binding NBS DNA” value is at most 0.2.

In the case of SNDC, the “one-hybrid fitness for binding NBS DNA” value was at most 0.2.

Consider NLHI, for which the “one-hybrid fitness for binding NBS DNA” value is at most 0.2.

With SSGD, the “one-hybrid fitness for binding NBS DNA” value was at most 0.2.

As to RSNF, the “one-hybrid fitness for binding NBS DNA” value is at most 0.2.

Turning to VANT, the “one-hybrid fitness for binding NBS DNA” value was at most 0.2.

Take CIVT: the “one-hybrid fitness for binding NBS DNA” value was at most 0.2.

On to FVTG, for which the “one-hybrid fitness for binding NBS DNA” value is at most 0.2.

Consider HPAS, for which the “one-hybrid fitness for binding NBS DNA” value is at most 0.2.

Consider MTET, for which the “one-hybrid fitness for binding NBS DNA” value is at most 0.2.

For the variant PHSN, the “one-hybrid fitness for binding NBS DNA” value was at most 0.2.

Regarding WKLG, the “one-hybrid fitness for binding NBS DNA” value is at most 0.2.

Take ASGY: the “one-hybrid fitness for binding NBS DNA” value was at most 0.2.

For the variant VTES, the “one-hybrid fitness for binding NBS DNA” value was at most 0.2.

Turning to REHD, the “one-hybrid fitness for binding NBS DNA” value was at most 0.2.

As to RMDA, the “one-hybrid fitness for binding NBS DNA” value is at most 0.2.

CFRM: the “one-hybrid fitness for binding NBS DNA” value is at most 0.2.

Turning to PSGP, the “one-hybrid fitness for binding NBS DNA” value is at most 0.2.

For PVRS, the “one-hybrid fitness for binding NBS DNA” value was at most 0.2.

For the variant RFPY, the “one-hybrid fitness for binding NBS DNA” value is at most 0.2.

With AQPC, the “one-hybrid fitness for binding NBS DNA” value is at most 0.2.

Turning to GCYG, the “one-hybrid fitness for binding NBS DNA” value is at most 0.2.

As for VPFV, the “one-hybrid fitness for binding NBS DNA” value is at most 0.2.

For the variant VFFC, the “one-hybrid fitness for binding NBS DNA” value was at most 0.2.

As for QKNC, the “one-hybrid fitness for binding NBS DNA” value turned out to be 0.201.

As for SKKL, the “one-hybrid fitness for binding NBS DNA” value was at most 0.2.

With PSRT, the “one-hybrid fitness for binding NBS DNA” value was at most 0.2.

Take ETVV: the “one-hybrid fitness for binding NBS DNA” value is at most 0.2.

ARIA: the “one-hybrid fitness for binding NBS DNA” value is at most 0.2.

For TKTV, the “one-hybrid fitness for binding NBS DNA” value is at most 0.2.

Regarding RKCG, the “one-hybrid fitness for binding NBS DNA” value is at most 0.2.

Turning to LMFW, the “one-hybrid fitness for binding NBS DNA” value is at most 0.2.

Regarding APSG, the “one-hybrid fitness for binding NBS DNA” value is at most 0.2.

Take ANRG: the “one-hybrid fitness for binding NBS DNA” value is at most 0.2.

Consider DRSN, for which the “one-hybrid fitness for binding NBS DNA” value was at most 0.2.

For TFAC, the “one-hybrid fitness for binding NBS DNA” value is at most 0.2.

For DDFR, the “one-hybrid fitness for binding NBS DNA” value is at most 0.2.

Turning to WVVM, the “one-hybrid fitness for binding NBS DNA” value was at most 0.2.

As to INIC, the “one-hybrid fitness for binding NBS DNA” value is at most 0.2.

As to LYHA, the “one-hybrid fitness for binding NBS DNA” value is at most 0.2.

PHPR: the “one-hybrid fitness for binding NBS DNA” value was at most 0.2.

Take RHEV: the “one-hybrid fitness for binding NBS DNA” value is at most 0.2.

Regarding PPSR, the “one-hybrid fitness for binding NBS DNA” value was at most 0.2.

For the variant YMNG, the “one-hybrid fitness for binding NBS DNA” value is at most 0.2.

As for TKCD, the “one-hybrid fitness for binding NBS DNA” value was at most 0.2.

On to DASE, for which the “one-hybrid fitness for binding NBS DNA” value is at most 0.2.

Consider QVHH, for which the “one-hybrid fitness for binding NBS DNA” value is at most 0.2.

With ELAE, the “one-hybrid fitness for binding NBS DNA” value is at most 0.2.

YPNG: the “one-hybrid fitness for binding NBS DNA” value is at most 0.2.

Take GAPW: the “one-hybrid fitness for binding NBS DNA” value is at most 0.2.

On to TCWG, for which the “one-hybrid fitness for binding NBS DNA” value was at most 0.2.

On to ETTI, for which the “one-hybrid fitness for binding NBS DNA” value was at most 0.2.

As for QKLQ, the “one-hybrid fitness for binding NBS DNA” value is at most 0.2.

Turning to DASA, the “one-hybrid fitness for binding NBS DNA” value is at most 0.2.

Consider KSLE, for which the “one-hybrid fitness for binding NBS DNA” value was at most 0.2.

For the variant IKEY, the “one-hybrid fitness for binding NBS DNA” value was at most 0.2.

As for WHYT, the “one-hybrid fitness for binding NBS DNA” value is at most 0.2.

Consider QVIA, for which the “one-hybrid fitness for binding NBS DNA” value is at most 0.2.

For the variant QKYP, the “one-hybrid fitness for binding NBS DNA” value is at most 0.2.

These data come from a collection of fitness landscapes (doi:10.1016/j.celrep.2020.107928).
